# Assay results: article PMC4336329 (PLoS ONE, 2015)
# In all, about 310,000 compounds went through this assay and about 2,200 (0.71%) showed an effect of 50% or more. The effect is printed as a negative number. Some of the results follow.
# Biological target: human ether-à-go-go-related gene (hERG) potassium channel (human, UniProt Q12809)
# Experiment: primary screen, population patch clamp on CHO cells stably expressing hERG
# human ether-à-go-go-related gene (hERG) potassium channel, sequence (Q12809 whole entry, looked up): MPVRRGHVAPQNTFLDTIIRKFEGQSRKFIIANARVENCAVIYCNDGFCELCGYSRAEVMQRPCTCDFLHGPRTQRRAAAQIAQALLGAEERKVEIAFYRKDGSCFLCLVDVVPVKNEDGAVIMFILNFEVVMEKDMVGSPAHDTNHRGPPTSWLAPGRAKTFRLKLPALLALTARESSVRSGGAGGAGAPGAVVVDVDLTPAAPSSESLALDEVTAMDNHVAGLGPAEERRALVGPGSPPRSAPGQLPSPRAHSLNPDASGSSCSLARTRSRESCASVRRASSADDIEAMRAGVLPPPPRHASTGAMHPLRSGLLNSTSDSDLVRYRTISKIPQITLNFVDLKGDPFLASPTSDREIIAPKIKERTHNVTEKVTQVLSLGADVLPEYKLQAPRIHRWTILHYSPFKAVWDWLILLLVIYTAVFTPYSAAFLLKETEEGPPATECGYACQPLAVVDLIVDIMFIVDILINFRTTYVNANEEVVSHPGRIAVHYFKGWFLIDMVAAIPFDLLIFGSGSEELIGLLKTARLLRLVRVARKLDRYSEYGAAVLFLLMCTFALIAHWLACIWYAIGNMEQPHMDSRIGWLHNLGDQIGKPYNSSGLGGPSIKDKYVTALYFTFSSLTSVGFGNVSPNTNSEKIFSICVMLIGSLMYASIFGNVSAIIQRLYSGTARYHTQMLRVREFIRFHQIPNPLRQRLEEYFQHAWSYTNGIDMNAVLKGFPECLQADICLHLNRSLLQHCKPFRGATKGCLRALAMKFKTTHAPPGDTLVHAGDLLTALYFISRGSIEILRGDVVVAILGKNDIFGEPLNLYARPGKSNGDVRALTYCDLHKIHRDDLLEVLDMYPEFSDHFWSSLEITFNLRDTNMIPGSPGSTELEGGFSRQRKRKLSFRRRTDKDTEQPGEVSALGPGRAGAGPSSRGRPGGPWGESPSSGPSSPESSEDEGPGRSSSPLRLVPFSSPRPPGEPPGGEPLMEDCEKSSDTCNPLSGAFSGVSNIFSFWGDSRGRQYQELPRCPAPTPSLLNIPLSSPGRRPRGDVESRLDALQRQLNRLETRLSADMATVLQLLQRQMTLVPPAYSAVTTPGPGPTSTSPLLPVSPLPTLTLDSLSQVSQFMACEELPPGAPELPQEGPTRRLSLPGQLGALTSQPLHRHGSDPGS
row,SMILES,"hERG current change (%, negative = inhibition) at 1uM [%]"
1,CCN1CCN(c2ccc(NC(=O)c3cccc(N4CCCC4=O)c3)cc2)CC1,13.3
2,Cc1ccc(-c2nc3ncccc3o2)cc1NC(=O)C(C)(C)C,14.6
3,Cc1ccc(-c2noc(C3CCN(S(=O)(=O)c4ccc5c(c4)OCCO5)CC3)n2)o1,10.2
4,CCN1CCN(CCOCCOc2ccccc2)CC1.O=C(O)C(=O)O,16.4
5,Cn1cnnc1SCC(=O)Nc1ccc(OC(F)F)cc1,9.26
6,O=C(C1CCC(CNc2c(N3CCOCC3)c(=O)c2=O)CC1)N1CCN(c2ccccc2)CC1 (stereo not shown),24.8
7,CCC1Oc2ccccc2N(CC(=O)NCCCN2CCCCC2CC)C1=O (stereo not shown),10.5
8,O=c1cc(NC2CCCCC2)[nH]c(=O)[nH]1,11.5
9,CCCn1ncc(CN2CCC(n3nccc3NC(=O)CCc3ccccc3)CC2)c1C,3.15
10,O=C(Nc1nc2ccc(SC(F)F)cc2s1)c1ccc(NS(=O)(=O)c2ccc(F)c(F)c2)cc1,5.9
11,Cc1nc(NC(=O)C2CC2)sc1C(=O)N(C)C,17.6
12,Cc1cccc(CN2CCN(c3ccccn3)CC2)c1,-0.3
13,CS(=O)(=O)c1ccc2nc(NC(=O)Cc3ccccc3)sc2c1,12.5
14,Cc1ccc(NC(=O)c2cccc3c2C(=O)N(C2CCCCC2)C3)c(C)c1,17.2
15,O=c1c2c(nc3n1CCCCC3)sc1c(O)c(Br)ccc12,-0.391
16,CC1CCCC(NC(=O)COC(=O)c2ccc(Cl)nc2)C1C (stereo not shown),7.96
17,O=C(CNS(=O)(=O)c1ccccc1)OCc1cccc([N+](=O)[O-])c1,15.1
18,O=C(NCCc1ccccc1)C1CCC(CNS(=O)(=O)c2ccccc2)CC1 (stereo not shown),15
19,Cc1ccc2nc(-c3ccc(NC(=O)CN(c4ccccc4C)S(C)(=O)=O)cc3)sc2c1,-4.07
20,CN1CCN(C(=O)c2ccccc2[N+](=O)[O-])CC1,12.2
21,Clc1cccc(OCCCn2ccnc2)c1,13.5
22,COc1ccc(S(=O)(=O)Nc2ccc(C)cc2)cc1OC,-14.9
23,Cc1cc(OCC(=O)NCC2CCC(C(=O)O)CC2)c2c(C)cc(=O)oc2c1 (stereo not shown),6.61

row,SMILES,"hERG current change (%, negative = inhibition) at 1uM [%]"
1,COc1ccccc1C1=CC(=O)CCC1,12.5
2,CC(C)COP(=O)(c1ccc(N(C)C)cc1)C(O)c1ccccc1F (stereo not shown),-11.1
3,CC1(O)N(CCC(=O)Nc2cccc(F)c2)C(=O)OC12CCCCC2 (stereo not shown),14.7
4,CCOc1ccc(N2Cc3ccccc3C2)cc1,9.33
5,CCC1CN(S(=O)(=O)c2ccc3c(c2)NC(=O)CC(=O)N3)c2cc(Cl)ccc2O1 (stereo not shown),7.34
6,OCCNc1nc(Nc2ccccc2Oc2ccccc2)nc(N2CCCC2)n1,17.1
7,O=C(CN1C(=O)C2CC=CCC2C1=O)Nc1nnc(SCc2ccc(Cl)cc2)s1 (stereo not shown),2.5
8,CCN(CC)Cc1ccccc1Sc1ccccc1.O=C(O)/C=C\C(=O)O,-6.63
9,CCOC(=O)c1csc(NC(=O)Nc2cccc(Cl)c2)n1,15.1
10,Cn1c(SCc2nc3ccccc3s2)nnc1-c1ccc2c(c1)OCO2,-10.7
11,CN(CC1COCCO1)C(=O)c1cc(COc2c(F)cccc2F)on1 (stereo not shown),5.08
12,CCN(CCO)Cc1cc(=O)oc2cc3c(cc12)CCC3,21.6
13,COc1ccc(N2CC(C(=O)N3CCOCC3)CC2=O)cc1 (stereo not shown),13.4
14,CCOC(=O)c1c(C)[nH]c(C(=O)COC(=O)c2cc(C)oc2C)c1C,-7.59
15,CC(=O)NN1C(=O)/C(=C\c2ccc(Cl)cc2)SC1=S,19.1
16,N#Cc1ccc(OCC(=O)Nc2ccncc2)cc1,16.6
17,O=C(Nc1nnc(-c2ccco2)o1)c1ccc(S(=O)(=O)N2CCCC2)cc1,11.1
18,O=C(N1CCN(c2ncccn2)CC1)C12CC3CC(CC(C3)C1)C2,10.1
19,Cc1ccc(-c2nnc(SCC(N)=O)n2C)cc1,9.74
20,CCCC1=NN(C(=O)C(=O)Nc2ccc(Br)cc2)C(O)(C(F)(F)F)C1 (stereo not shown),7.3
21,CCC1CCCCN1CC(=O)c1c(C)[nH]c2ccccc12 (stereo not shown),-1.2
22,CC(C)(C)c1ccc(C(=O)NC(=S)Nc2nc3c(s2)CCCC3)cc1,9.38
23,CCn1c(NCCO)nc2c(c1=O)C(C)(CC)Cc1ccccc1-2 (stereo not shown),13.9

row,SMILES,"hERG current change (%, negative = inhibition) at 1uM [%]"
1,COC(=O)C1=C(c2ccc(F)cc2OCc2ccccc2)C[C@@H]2CC[C@H]1N2C(=O)NCc1ccccc1C(F)(F)F,16.4
2,O=C(Nc1ccc(F)cc1)c1cc(-c2ccncc2)nc2c(Cl)cccc12,11.5
3,CC(=O)c1sc(NC(=O)COc2ccc(Cl)cc2C)nc1C,10.2
4,CSc1nsc(SCC(=O)N2CCCCC2)n1,10.3
5,CC(=O)Nc1ccc(NC(=O)c2ccc(-c3ccc([N+](=O)[O-])cc3)o2)cc1,-5.28
6,O=C(CN1C(=O)NC(Cc2ccccc2)(Cc2ccccc2)C1=O)NCC1CCCCC1,-7.14
7,COc1ccc(OC)c(-c2nc(C)sc2CC(=O)O)c1,12.7
8,O=C(CCCc1nc(-c2ccc(Cl)cc2)no1)Nc1cccnc1,1.44
9,NC(=O)OCC(COC(N)=O)c1ccccc1.O,2
10,C/C(NCCCn1ccnc1)=C(\C#N)C(N)=O,-3.48
11,O=C(O)C(=O)O.c1ccc(CNC23CC4CC(CC(C4)C2)C3)nc1,10.9
12,COc1ccc(NS(=O)(=O)c2ccc(-c3n[nH]c(=S)n3Cc3ccccc3)cc2)cc1,1.4
13,CC(C)N(C(=O)CSc1ccc(S(=O)(=O)N2CCCCC2)cn1)C(C)C,-4.54
14,COCCn1c(-c2ccccc2)nc2c(c(=O)c3ccccc3n2C)c1=O,13.1
15,Nc1nonc1/C(=N/O)N1CCCC1,5.17
16,CC(NC(=O)CCNC(=O)c1ccc(Br)cc1)c1ccc(-n2ccnc2)cc1 (stereo not shown),-12.6
17,COC(=O)C1=C(c2ccc(C(C)=O)cc2)C[C@@H]2CC[C@H]1N2C(=O)NCCOc1ccccc1Cl,-0.289
18,Cc1ccc(S(=O)(=O)N2CCCC2CNC(=O)c2ccc(F)c(F)c2)cc1 (stereo not shown),7.11
19,O=C(Cc1ccccc1)Nc1ccccc1CO,10.6
20,Cc1cc(C)n2c(Br)c(CSc3nc4ccccc4o3)nc2n1,-53
21,CC(=O)OC(Cn1ccnc1)c1ccccc1.Cl (stereo not shown),3.91
22,CCCCn1c(=O)c(C(=O)N/N=C/c2ccc(F)cc2)c(O)c2ccccc21,10.4
23,Nc1nnc(SCC(=O)N2CCc3ccccc32)n1-c1ccccc1,12.1

row,SMILES,"hERG current change (%, negative = inhibition) at 1uM [%]"
1,COc1ccccc1NC(=O)CSC1CC(=O)N(c2ccc3c(c2)OCO3)C1=O (stereo not shown),3.61
2,COc1ccc([C@H]2/C=C\CN(S(=O)(=O)c3ccc4ccccc4c3)[C@@H](C)C(=O)N2Cc2ccc(F)cc2)cc1,6.58
3,Cc1cccc(NC2(C(F)(F)F)N=C(c3ccccc3)NC2=O)n1 (stereo not shown),6.15
4,CCCC(=O)NC(=S)Nc1cc(-c2nc3ncccc3o2)ccc1C,8.65
5,c1ccc2c(c1)Cc1ccccc1O2,16.2
6,COCCCNC(=O)CC(NS(=O)(=O)c1ccc(Cl)cc1)c1ccco1 (stereo not shown),6.62
7,CCOc1ccc(-n2c(SCC)nc3c(c2=O)SCC3)cc1,8.71
8,COc1ccc(CN(C)CC(=O)Nc2cccc3ccccc23)cc1F,9.27
9,O=C1Nc2cc(Cl)c(Cl)cc2N(O)N1c1cc(Cl)cc(Cl)c1,17.7
10,CC(C)c1ccc(NC(=O)COC(=O)[C@H](CCC(N)=O)NC(=O)c2ccc(F)cc2)cc1,-6.65
11,COc1ccc(S(=O)(=O)N2CCC(C(=O)NCC3CCCO3)CC2)cc1OC (stereo not shown),16.8
12,Cc1nc(NC(=O)CSc2nnc(C3CC3)n2C)sc1C(=O)N(C)C,19.1
13,N#CCCN(Cc1ccccc1)C(=O)Nc1ccc(F)cc1,22
14,CCOC(=O)c1c(C)[nH]c(C(=O)OCC(=O)NC(C)C)c1C,-7.3
15,COc1ccc(/C=C/C(=O)NCCNC(=O)c2ccccc2)cc1OC,4.49
16,O=S(=O)(Nc1cccc2c1CCCC2)c1cccc(C(F)(F)F)c1,8.01
17,COC(=O)c1ccc(OCC(=O)c2ccc(O)cc2O)cc1,1.47
18,NC(CSCc1cccc(Br)c1)C(=O)O (stereo not shown),-4.13
19,N#Cc1ccc(CN2C=NS(=O)(=O)c3ccccc32)cc1,2.19
20,Cc1cc(C(=O)NNC(=S)NCC(C)C)no1,7.44
21,Cc1cccn2c(=O)c3cc(C(=O)NCc4cccnc4)c(=N)n(C(C)C)c3nc12,-67.3
22,COc1ccc(NC(=O)N(Cc2cccs2)Cc2cc3cc4c(cc3[nH]c2=O)OCO4)cc1,6
